Test results as given in the antibiotic and cytotoxicity screens of Wong et al. (2023).
This is one part of the list.

Tested on: HepG2
Assay: cytotoxicity call (relative viability < 0.9)
Settings: 10 µM

Row | Compound | cytotoxicity call
1 | C[C@@H]1CCCCO[C@@H](CN(C)C(=O)Nc2ccc(C(F)(F)F)cc2)[C@@H](C)CN([C@H](C)CO)C(=O)c2cc(NC(=O)Nc3cccc4ccccc34)ccc2O1 | inactive
2 | Fc1ccc(C2=NNC3=NCCN3C2)cc1F | inactive
3 | CO[C@H]1CN(C)C(=O)c2cc(NS(=O)(=O)c3cn(C)cn3)ccc2OC[C@H](C)N(CC2CC2)C[C@@H]1C | inactive
4 | C[C@@H]1CN([C@H](C)CO)C(=O)c2cc(NC(=O)CCCN(C)C)ccc2O[C@H]1CN(C)Cc1ccc(C(=O)O)cc1 | inactive
5 | C[C@@H]1CN([C@H](C)CO)C(=O)c2cccc(NC(=O)Nc3ccc(F)cc3)c2O[C@H]1CN(C)S(C)(=O)=O | inactive
6 | Cc1noc(C)c1S(=O)(=O)Nc1ccc2c(c1)C(=O)N([C@H](C)CO)C[C@H](C)[C@H](CN(C)S(=O)(=O)c1ccc(F)cc1)O2 | inactive
7 | CCCN(CCC)C(=O)C(CCC(=O)O)NC(=O)c1ccccc1 (stereo not given) | inactive
8 | COc1ccccc1CNC(=O)C[C@H]1C[C@H]2c3cc(NC(=O)Nc4ccc(C(F)(F)F)cc4)ccc3O[C@H]2[C@@H](CO)O1 | inactive
9 | COc1cc2c(cc1OC)CN(C(=O)[C@H]1[C@@H]3C(=O)O[C@@H](c4ccccc4)[C@@H](c4ccccc4)N3[C@@H](c3ccc(O)cc3)[C@]13C(=O)Nc1ccc(C#CC4(O)CCCCCC4)cc13)CC2 | inactive
10 | C[C@H]1CN([C@@H](C)CO)C(=O)c2cc(NC(=O)Cn3cnnn3)ccc2O[C@H]1CN(C)C(=O)Nc1ccc(C(F)(F)F)cc1 | inactive
11 | C[C@@H]1CN([C@H](C)CO)C(=O)c2cc(NS(=O)(=O)c3cccs3)ccc2O[C@@H]1CN(C)S(=O)(=O)c1ccccc1 | inactive
12 | C[C@@H]1CCCCO[C@H](CN(C)C(=O)Nc2ccc3c(c2)OCO3)[C@@H](C)CN([C@H](C)CO)C(=O)c2cc(NC(=O)Nc3ccccc3)ccc2O1 | inactive
13 | CC(C)CC#Cc1ccc2c(c1)O[C@H](CN(C)C(=O)c1cnccn1)[C@H](C)CN([C@@H](C)CO)S2(=O)=O | inactive
14 | Cc1nc2[nH]c(C)c(CCC(=O)O)c(=O)n2n1 | inactive
15 | COc1ccc(S(=O)(=O)N(C)C[C@@H]2Oc3ccc(NC(=O)Cn4cnnn4)cc3CC(=O)N([C@@H](C)CO)C[C@@H]2C)cc1 | inactive
16 | C[C@H](CO)N1C[C@H](C)[C@H](CN(C)CC2CCOCC2)Oc2cc(-c3cccnc3)ccc2S1(=O)=O | inactive
17 | O=C(C[C@@H]1C[C@@H]2c3cc(NC(=O)C4CCOCC4)ccc3O[C@@H]2[C@@H](CO)O1)NCc1ccc2c(c1)OCO2 | inactive
18 | Cc1noc(C)c1S(=O)(=O)N(C)C[C@H]1Oc2c(NS(=O)(=O)c3cn(C)cn3)cccc2C(=O)N([C@@H](C)CO)C[C@@H]1C | inactive
19 | COCCNC(=O)C[C@@H]1CC[C@@H](NS(=O)(=O)c2ccc(C)cc2)[C@@H](CO)O1 | inactive
20 | COCC(=O)Nc1ccc2c(c1)C(=O)N(C)[C@@H]1CC[C@H](CC(=O)NCc3ccc(OC)cc3)O[C@@H]1CO2 | inactive

Row | Compound | cytotoxicity call
21 | C[C@H]1CCCCO[C@@H](CN(C)C(=O)c2ccncc2)[C@@H](C)CN([C@@H](C)CO)C(=O)c2cc(NC(=O)NC3CCCCC3)ccc2O1 | inactive
22 | C[C@@H]1CN([C@H](C)CO)C(=O)c2cc(NC(=O)Nc3ccc(C(F)(F)F)cc3)ccc2O[C@@H]1CN(C)S(C)(=O)=O | inactive
23 | O=C(C[C@@H]1CC[C@@H]2[C@H](COC[C@H](O)CN2C(=O)Nc2ccc(Cl)c(Cl)c2)O1)NCc1ccc(Cl)c(Cl)c1 | inactive
24 | CC(C)NC(=O)N(C)C[C@H]1Oc2c(NC(=O)Nc3ccc4c(c3)OCO4)cccc2C(=O)N([C@@H](C)CO)C[C@@H]1C | inactive
25 | COc1ccc(-c2cc(=O)c3c(O)c(OC)c(OC4OC(COC5OC(C)C(O)C(O)C5O)C(O)C(O)C4O)cc3o2)cc1 (stereo not given) | inactive
26 | C[C@@H]1CCCCO[C@H](CN(C)Cc2ccncc2)[C@H](C)CN([C@@H](C)CO)C(=O)c2cc(NC(=O)Cc3ccccc3)ccc2O1 | inactive
27 | C[C@@H]1CN([C@H](C)CO)C(=O)Cc2cc(NS(=O)(=O)c3ccc(F)cc3)ccc2O[C@@H]1CN(C)S(=O)(=O)c1ccccc1 | inactive
28 | C[C@@H]1CN([C@@H](C)CO)C(=O)Cc2cc(NS(=O)(=O)c3cn(C)cn3)ccc2O[C@@H]1CN(C)S(=O)(=O)c1ccccc1 | inactive
29 | C[C@@H]1CN([C@@H](C)CO)C(=O)c2cccc(NC(=O)C3CC3)c2O[C@H]1CN(C)Cc1ccc(Oc2ccccc2)cc1 | inactive
30 | CNC[C@@H]1OCCCC[C@H](C)Oc2ccc(NS(=O)(=O)c3cn(C)cn3)cc2C(=O)N([C@@H](C)CO)C[C@H]1C | inactive
31 | CN(CCO)S(=O)(=O)c1ccc2c(c1)C(=NO)c1cc(S(=O)(=O)N(C)CCO)ccc1-2 | inactive
32 | C=CC(=O)N[C@@H]1c2ccccc2C[C@@H]1O | inactive
33 | COCC#Cc1cnc2c(c1)C(=O)N([C@@H](C)CO)C[C@@H](C)[C@@H](CN(C)C(=O)CCN1CCCCC1)O2 | inactive
34 | COc1ccc(NC(=O)Nc2ccc3c(c2)C(=O)N([C@H](C)CO)C[C@H](C)[C@H](CN(C)Cc2ccc4c(c2)OCO4)OCCCC[C@H](C)O3)cc1 | active
35 | CO[C@@H]1CN(C)C(=O)c2ccc(NS(C)(=O)=O)cc2OC[C@@H](C)N(C(=O)C2CCOCC2)C[C@H]1C | inactive
36 | COc1ccc(S(=O)(=O)N(C)C[C@H]2Oc3c(NS(=O)(=O)c4c(C)noc4C)cccc3C(=O)N([C@H](C)CO)C[C@H]2C)cc1 | inactive
37 | Cc1ccc(F)cc1NC(=O)[C@@H](C)N | inactive
38 | COc1ccc(S(=O)(=O)N(C)C[C@H]2Oc3ccc(N(C)C)cc3CC(=O)N([C@H](C)CO)C[C@@H]2C)cc1 | inactive
39 | COc1ccc(CN(C)C[C@H]2Oc3c(NC(=O)c4ccc(-c5nccs5)cc4)cccc3C(=O)N([C@H](C)CO)C[C@H]2C)cc1 | inactive
40 | C[C@H](CO)N1C[C@H](C)[C@@H](CN(C)S(=O)(=O)c2ccc(Cl)cc2)OCCCC[C@H](C)Oc2ccc(NS(=O)(=O)c3ccccc3)cc2C1=O | inactive
